{
  "source": "PubChem BioAssay AID651820",
  "about": "(National Center for Advancing Translational Sciences (NCATS), 2012)",
  "note": "Several values for one entry are separate records, joined by “and”; a condition that tells them apart may be missing. Equal values may be shown once. In all, about 340,000 compounds went through this assay and about 12,000 (3.5%) were called active. The inconclusive results got no clear call from the source; some entries with a clear call stand among them for comparison. Calls follow the shape of the dose curve; as a rule, active = well fitted inhibition curve with a large enough effect; inconclusive = small, poorly fitted or top-dose-only effect, or another doubt; inactive = no such curve, though single readings can be large or run the other way. A potency beside an inconclusive call is a rough fit, not a confirmed value. % is scaled to controls: 0 for no effect and ±100 for the full control effect; potency is read from the fitted curve at half-maximal effect; tags tell the direction and shape of the fitted curve.",
  "data": [
    {"test": "qHTS Assay for Inhibitors of Hepatitis C Virus (HCV)", "conditions": "Huh7.5.1 HCVcc-Cre (HCVcc is cell-culture hepatitis C virus) infection, luciferase reporter, 44 h; activity change, negative = inhibition: at 41.8 µM (top of the series) unless noted", "method_in_brief": "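Cells seeded at 1,000/well and cultured 4 h, then compounds added followed by HCVcc-Cre virus (~0.5 moi). After 44 h further culture, luciferase substrate was added, plates held 15 min at room temperature, and luminescence read for 15 sec.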", "values": [
      {"smiles": "Cc1cc(NC(=O)CCCN2C(=O)c3cccnc3C2=O)ccc1Br", "Potency": "inconclusive: 3.16 µM [inhibitor, single point]"},
      {"smiles": "CCOc1cc(C(=S)N2CCCC2)ccc1O", "activity change, negative = inhibition": "inactive: -15.7%"},
      {"smiles": "CCOc1ccc2ncc(S(=O)(=O)c3ccccc3)c(N3CCN(c4ccc(OC)cc4)CC3)c2c1", "Potency": "inconclusive: 31.6 µM [inhibitor, single point]"},
      {"smiles": "Cc1c(Br)cnn1C(C)C(=O)N1CCN(c2ccccc2F)CC1", "note": "(stereo unspecified)", "activity change, negative = inhibition": "inactive: 18.5%"},
      {"smiles": "CCc1ccc(CN(C)C(=O)CCc2nnc(CCc3cccc(OC)c3)o2)nc1", "activity change, negative = inhibition": "inactive: -25%"},
      {"smiles": "Cc1cc(S(=O)(=O)ON2C(=O)c3ccccc3C2=O)ccc1F", "activity change, negative = inhibition": "inactive: 1.81%"},
      {"smiles": "O=C(N/N=C/c1ccc(F)cc1)c1cc(-c2ccc3c(c2)OCO3)n[nH]1", "Potency": "inconclusive: 31.6 µM [inhibitor, single point]"},
      {"smiles": "CC(C)Oc1ccc(C(=O)NCc2cccs2)cc1", "activity change, negative = inhibition": "inactive: -18.9%"},
      {"smiles": "CCOc1ccccc1C(=O)OC(C)C(=O)Nc1ccc(S(=O)(=O)N2CCCC2)cc1", "note": "(stereo unspecified)", "Potency": "inconclusive: 0.562 µM [inhibitor, full curve, poor fit]"},
      {"smiles": "O=C(OC1CCN(c2ncc(C(F)(F)F)cc2Cl)CC1)c1ccccc1", "activity change, negative = inhibition": "inactive: 6.77%"},
      {"smiles": "CCCc1cc(C(=O)Nc2cccc(C(C)=O)c2)no1", "activity change, negative = inhibition": "inactive: -1.7%"},
      {"smiles": "Cc1cccc(Nc2nc(-c3cccs3)cs2)n1", "Potency": "inconclusive: 31.6 µM [inhibitor, single point]"},
      {"smiles": "CCOC(=O)C1(CC2CCCCO2)CCN(C(=O)Nc2ccccc2CC)CC1", "note": "(stereo unspecified)", "activity change, negative = inhibition": "inactive: 9.36%"},
      {"smiles": "Cc1cnccc1NC(=O)c1cccs1", "activity change, negative = inhibition": "inactive: -26.4%"},
      {"smiles": "O=C(O)c1cccnc1SCCc1ccccc1", "activity change, negative = inhibition": "inactive: 4.42%"},
      {"smiles": "O=C(CCS(=O)(=O)c1cccs1)NC1CCCCCC1", "Potency": "inconclusive: 4.47 µM [inhibitor, single point]"},
      {"smiles": "Cc1csc(NC(=O)c2cc(C)oc2C)n1", "Potency": "inconclusive: 5.62 µM [inhibitor, single point]"},
      {"smiles": "Cc1ccc(C(=O)Nc2ccc(N3CCOCC3)cc2N2CCOCC2)cc1", "Potency": "inconclusive: 17.8 µM [inhibitor, partial curve]"},
      {"smiles": "O=C(Cc1ccc([N+](=O)[O-])cc1)Nc1cccc(C(=O)N2CCCCC2)c1", "Potency": "inconclusive: 3.16 µM [inhibitor, single point]"},
      {"smiles": "CC(=O)Nc1ccc(NC(=O)COc2ccc(S(=O)(=O)NC(C)c3ccccc3)cc2)cc1", "note": "(stereo unspecified)", "Potency": "inconclusive: 31.6 µM [inhibitor, single point]"},
      {"smiles": "CC(=O)Nc1nc(-c2ccc3c(c2)CC(C)N3C(=O)C2CC2)c(C)s1", "note": "(stereo unspecified)", "Potency": "inconclusive: 22.4 µM [inhibitor, single point]"},
      {"smiles": "CCn1cc(C(=O)OCC(=O)OC2CC(C)CCC2C(C)C)c(=O)c2ccc(C)nc21", "note": "(stereo unspecified)", "Potency": "inconclusive: 35.5 µM [inhibitor, single point] and inconclusive: 31.6 µM [inhibitor, single point]"},
      {"smiles": "Nc1nc(SCc2ccccc2)c2[nH]cnc2n1", "activity change, negative = inhibition": "inactive: 9.31%"},
      {"smiles": "O=C(NC1CCCCC1)N1CCc2[nH]c3ccccc3c2C1", "Potency": "inconclusive: 3.55 µM [inhibitor, partial curve]"},
      {"smiles": "Cc1cccc(N2CCN(S(=O)(=O)c3ccc(-c4coc(C)n4)cc3)CC2C)c1", "note": "(stereo unspecified)", "activity change, negative = inhibition": "inactive: -15.1%"},
      {"smiles": "CC1CC(C)(C)CC2(C1)NC(=O)N(CC(=O)NCCc1ccc3c(c1)OCCO3)C2=O", "note": "(stereo unspecified)", "activity change, negative = inhibition": "inactive: 13.3%"},
      {"smiles": "CC(=O)COc1ccc2oc(=O)cc(-c3cc4ccccc4o3)c2c1", "Potency": "active: 14.1 µM"},
      {"smiles": "COC(=O)c1c(NC(=O)COc2ccc(Cl)cc2)sc2c1CC(C)(C)NC2(C)C", "Potency": "active: 11.2 µM"},
      {"smiles": "O=C(Nc1cc(S(=O)(=O)N2CCCCC2)ccc1Oc1ccccc1)C1=COCCO1", "Potency": "active: 22.4 µM"},
      {"smiles": "O=C(NCCc1ccco1)C(=O)NCC1CCCN1S(=O)(=O)c1ccccc1", "note": "(stereo unspecified)", "Potency": "inconclusive: 25.1 µM [inhibitor, single point]"},
      {"smiles": "Brc1ccc(C2=NC(Cc3ccccc3)CO2)cc1", "note": "(stereo unspecified)", "Potency": "inconclusive: 5.62 µM [inhibitor, single point]"},
      {"smiles": "O=C(OCc1c(F)cccc1Cl)c1cnccn1", "Potency": "inconclusive: 3.16 µM [inhibitor, partial curve]"},
      {"smiles": "CCC(=O)c1ccc(O)c(CC=C(C)C)c1", "activity change, negative = inhibition": "inactive: -16.6%"},
      {"smiles": "COc1ccc(CNC(=O)C2CCN(S(=O)(=O)c3ccc4c(c3)CC(C)N4C(C)=O)CC2)cc1", "note": "(stereo unspecified)", "Potency": "inconclusive: 14.1 µM [inhibitor, single point]"},
      {"smiles": "COC(=O)/C(=C\\C(=O)c1ccccc1)Nc1ccc(OC)cc1", "activity change, negative = inhibition": "inactive: 11.8%"},
      {"smiles": "COc1ccc2[nH]c(=O)c(CN(Cc3cccs3)S(=O)(=O)c3c(C)ccc4nsnc34)cc2c1", "Potency": "active: 11.2 µM"},
      {"smiles": "CN1CCN(S(=O)(=O)c2ccc(N(C)Cc3c(F)cccc3Cl)nc2)CC1", "activity change, negative = inhibition": "inactive: -2.5%"},
      {"smiles": "OCCN1CCN(CCCN2c3ccccc3Sc3ccc(C(F)(F)F)cc32)CC1", "Potency": "inconclusive: 20 µM [inhibitor, partial curve, poor fit]"},
      {"smiles": "Cc1cc(NCc2ccccn2)n2ncc(-c3ccccc3)c2n1", "Potency": "active: 2.82 µM"},
      {"smiles": "CCN1CCN(c2ncc(C(=O)Nc3ccccc3C(=O)OC)c3ccccc23)CC1", "Potency": "active: 7.94 µM"},
      {"smiles": "Cn1c(=O)c2c(nc(Br)n2CC(=O)C23CC4CC(CC(C4)C2)C3)n(C)c1=O", "Potency": "inconclusive: 14.1 µM [inhibitor, single point]"},
      {"smiles": "CN(C)S(=O)(=O)N1CCC(Oc2ccc(C(=O)N3C[C@H]4CC[C@H]3C4)cc2)CC1", "Potency": "inconclusive: 31.6 µM [inhibitor, single point]"},
      {"smiles": "NS(=O)(=O)c1ccc(NC(=O)CN2CCCN(S(=O)(=O)c3ccc(F)cc3)CC2)cc1", "Potency": "inconclusive: 3.98 µM [inhibitor, single point]"},
      {"smiles": "CCOC(=O)C(=O)N1CCN(c2ccccc2OC)CC1", "Potency": "inconclusive: 5.62 µM [inhibitor, full curve]"},
      {"smiles": "Cc1nc2c(-c3ccc(F)cc3)cnn2c2c1CCC2", "Potency": "inconclusive: 8.91 µM [inhibitor, partial curve]"},
      {"smiles": "Cc1cc(C)cc(NC(=S)/N=C(\\N)Nc2nc(C)c3ccccc3n2)c1", "Potency": "inconclusive: 7.08 µM [inhibitor, partial curve]"},
      {"smiles": "CCN(Cc1ccncc1)C(=O)CCc1nnc(CCC2CCCCC2)o1", "activity change, negative = inhibition": "inactive: 10.4%"},
      {"smiles": "Cc1sc2nc(C(C)C)nc(SCC(=O)N3CCN(C(=O)c4ccco4)CC3)c2c1C", "Potency": "active: 11.2 µM"},
      {"smiles": "CCc1cc(Cn2nc(-c3ccccc3)cc2C(=O)NCc2ccccc2OC)on1", "Potency": "inconclusive: 8.91 µM [inhibitor, partial curve]"},
      {"smiles": "CC1=CC(=O)N(c2cccc(C(F)(F)F)c2)C1c1ccc(Cl)cc1", "note": "(stereo unspecified)", "Potency": "inconclusive: 31.6 µM [inhibitor, single point]"},
      {"smiles": "CCC(CC)Nc1ccc(C(CC(N)=O)NC(=O)c2ccccc2)cc1[N+](=O)[O-]", "note": "(stereo unspecified)", "Potency": "inconclusive: 10 µM [inhibitor, partial curve]"},
      {"smiles": "Cc1ccc(-c2csc3nnc(SCc4csc(C)n4)n23)cc1", "activity change, negative = inhibition": "inactive: -7.51%"},
      {"smiles": "O=S(=O)(/N=S1\\CC=CCN1S(=O)(=O)c1ccccc1)c1ccccc1", "note": "(stereo unspecified)", "activity change, negative = inhibition": "inactive: -0.914%"},
      {"smiles": "Nc1cc(-c2cccc(Br)c2)nn1Cc1ccccc1", "Potency": "inconclusive: 31.6 µM [inhibitor, single point]"},
      {"smiles": "CCOC(=O)C1CCN(C(=O)CSc2nccc(C)n2)CC1", "activity change, negative = inhibition": "inactive: 13.9%"},
      {"smiles": "Cc1ccc(Nc2nnc(SCC(O)=C(C#N)c3nc4ccccc4[nH]3)s2)c(C)c1", "Potency": "inconclusive: 31.6 µM [inhibitor, single point]"},
      {"smiles": "Nc1nc2c(s1)CCCCCCCCCC2", "activity change, negative = inhibition": "inactive: 12.7%"},
      {"smiles": "CC(C)Nc1nc(NC(C)(C)C)nc(Oc2ccc(=O)n(C)n2)n1", "activity change, negative = inhibition": "inactive: 3.4%"},
      {"smiles": "Cc1ccc(COCCN2CCN(S(=O)(=O)c3ccc(C)cc3)CCC2=O)cc1", "Potency": "inconclusive: 22.4 µM [inhibitor, single point]"},
      {"smiles": "COc1ccc(OC)c2sc(NC(=O)C3=COCCO3)nc12", "Potency": "active: 11.2 µM"},
      {"smiles": "CN(C)/C=N/c1c(C#N)cnn1-c1ccc(C(F)(F)F)cn1", "Potency": "inconclusive: 31.6 µM [inhibitor, single point]"},
      {"smiles": "CCC12CN(C(=O)c3ccc(C)cc3)CC(CC)(CN(C(=O)c3ccc(C)cc3)C1)C2=O", "activity change, negative = inhibition": "inactive: 1.7%"},
      {"smiles": "Cc1ccc(NC(=S)/N=C(\\N)Nc2nc(C)c3cc(C)ccc3n2)c(C)c1", "Potency": "active: 2.82 µM"},
      {"smiles": "CC(C)(C)Nc1c2ccccc2nc2ccccc12", "activity change, negative = inhibition": "inactive: -26.9%"},
      {"smiles": "COC(=O)c1sccc1NC(=S)N1C(C)CCCC1C", "note": "(stereo unspecified)", "Potency": "inconclusive: 5.62 µM [inhibitor, single point]"},
      {"smiles": "Cc1ccc(/C=C2\\CCC(C3CCCC3)C2=O)cc1", "note": "(stereo unspecified)", "activity change, negative = inhibition": "inactive: 11.6%"},
      {"smiles": "CC(C)OC(=O)C1OC1(C)c1ccccc1", "note": "(stereo unspecified)", "activity change, negative = inhibition": "inactive: -3.17%"},
      {"smiles": "COc1cc(OC)cc(C(=O)NCCCN2CCN(CCCNC(=O)c3cc(OC)cc(OC)c3)CC2)c1", "Potency": "inconclusive: 7.08 µM [inhibitor, partial curve]"},
      {"smiles": "NS(=O)(=O)c1cccc(NC(=O)COc2ccc([N+](=O)[O-])cc2)c1", "activity change, negative = inhibition": "inactive: 3.7%"},
      {"smiles": "Cc1c(C(=O)O)sc2ncn(C)c(=O)c12", "activity change, negative = inhibition": "inactive: 10.5%"},
      {"smiles": "COc1ccccc1NC(=O)c1ccc(NC(=O)C2CC2C)cc1", "note": "(stereo unspecified)", "Potency": "inconclusive: 1 µM [inhibitor, full curve, poor fit]"},
      {"smiles": "CCOc1ccc(C(=O)NCC(=O)NNC(=O)CN(C)S(=O)(=O)c2ccc(Cl)cc2)cc1OCC", "activity change, negative = inhibition": "inactive: 24.5%"},
      {"smiles": "O=C(Nc1ccc(S(=O)(=O)Nc2ccccc2)cc1)C1COc2ccccc2O1", "note": "(stereo unspecified)", "Potency": "inconclusive: 10 µM [inhibitor, partial curve]"},
      {"smiles": "COc1cc2c(c(OC)c1OC)-c1ccc(O)c(=O)cc1[C@@H](N)CC2", "activity change, negative = inhibition": "inactive: -14.1%"},
      {"smiles": "COc1ccc2c(c1)OC[C@H]1[C@H]2N2C(=O)c3cc(Br)ccc3NC(=O)[C@@]2(C)[C@H]1c1ccccc1", "Potency": "inconclusive: 14.1 µM [inhibitor, single point]"},
      {"smiles": "COc1ccc(NC(=O)COc2ccccc2Cc2ccccc2)cn1", "Potency": "inconclusive: 10 µM [inhibitor, partial curve]"}
    ]}
  ]
}
